# The list shows a part of the results.
# Tested on: HepG2
# Assay: cytotoxicity call (relative viability < 0.9)
# Conditions: 10 µM
row,SMILES,cytotoxicity call
1,C[C@@H]1CCCCO[C@H](CN(C)S(=O)(=O)c2ccccc2)[C@H](C)CN([C@H](C)CO)C(=O)c2cc(NS(=O)(=O)c3cn(C)cn3)ccc2O1,inactive
2,C[C@@H]1CN([C@H](C)CO)C(=O)c2cc(NS(=O)(=O)c3cn(C)cn3)ccc2O[C@H]1CN(C)CC1CC1,inactive
3,CC(C)C#Cc1ccc2c(c1)O[C@@H](CN(C)S(=O)(=O)c1cn(C)cn1)[C@@H](C)CN([C@@H](C)CO)S2(=O)=O,inactive
4,COc1cc(NS(C)(=O)=O)ccc1Nc1c2ccccc2nc2ccccc12,active
5,CN(C)CCCNC(=O)[C@@]1(Cc2ccccc2I)c2ccccc2C(=O)N(C2CCCCC2)[C@H]1c1ccc(CO)cc1,active
6,C[C@@H]1CN([C@@H](C)CO)C(=O)CCCn2cc(nn2)CO[C@H]1CN(C)C(=O)Nc1ccc2c(c1)OCCO2,inactive
7,O=C(C[C@@H]1CC[C@H]2[C@@H](COC[C@H](O)CN2C(=O)Nc2cccc(Cl)c2)O1)NCCCN1CCOCC1,inactive
8,CC(C)NC(=O)N(C)C[C@@H]1Oc2ccc(NC(=O)CCN3CCOCC3)cc2CC(=O)N([C@H](C)CO)C[C@@H]1C,inactive
9,C[C@H]1CCCCO[C@@H](CN(C)Cc2ccc(C(=O)O)cc2)[C@@H](C)CN([C@@H](C)CO)C(=O)c2cc(NC(=O)CCC(F)(F)F)ccc2O1,inactive
10,NCC1CCN(Cc2ccccc2)CC1,inactive
11,N#Cc1ccc(N2CCCNCC2)nc1,inactive
12,CC(C)CC#Cc1ccc2c(c1)O[C@@H](CN(C)C(=O)c1ccccn1)[C@@H](C)CN([C@@H](C)CO)S2(=O)=O,inactive
13,CN(C)Cc1cn(CC[C@@H]2CC[C@H](NS(=O)(=O)c3ccccc3)[C@H](CO)O2)nn1,inactive
14,C[C@@H]1CN([C@@H](C)CO)C(=O)c2cccc(NC(=O)C3CCCCC3)c2O[C@@H]1CN(C)Cc1ccc(-c2ccccc2)cc1,inactive
15,C[C@@H]1CCCCO[C@H](CN(C)C(=O)CCC(F)(F)F)[C@@H](C)CN([C@@H](C)CO)C(=O)c2cc(NS(=O)(=O)c3ccccc3)ccc2O1,inactive
16,CCCN1C[C@@H](C)[C@H](OC)CN(C)C(=O)c2cc(NS(=O)(=O)c3cn(C)cn3)ccc2OC[C@@H]1C,inactive
17,COc1ccc(C2CNC(=O)C2)cc1OC1CCCC1 (centres undefined),inactive
18,C[C@@H]1CCCCO[C@@H](CN(C)Cc2ccc(C(=O)Nc3ccccc3N)cc2)[C@@H](C)CN([C@H](C)CO)C(=O)c2cc(NC(=O)Nc3ccc4c(c3)OCO4)ccc2O1,inactive
19,CN(C)CCCCSC(=N)N,inactive
20,C[C@@H]1CN([C@H](C)CO)C(=O)c2cc(NC(=O)Cc3cn(C)c4ccccc34)ccc2O[C@H]1CN(C)C(=O)Nc1cccc2ccccc12,inactive

row,SMILES,cytotoxicity call
1,C[C@H]1CN([C@@H](C)CO)C(=O)c2cccc(NC(=O)C3CCOCC3)c2O[C@H]1CN(C)Cc1ccccc1,inactive
2,Cc1ccc(S(=O)(=O)N(C)C[C@@H]2OCCCC[C@@H](C)Oc3ccc(NC(=O)Nc4ccc5c(c4)OCO5)cc3C(=O)N([C@H](C)CO)C[C@H]2C)cc1,inactive
3,C[C@H](CO)N1C[C@H](C)[C@H](CN(C)C(=O)Cc2ccccn2)Oc2cc(-c3cccc(C(=O)N(C)C)c3)ccc2S1(=O)=O,inactive
4,C[C@@H]1CN([C@@H](C)CO)S(=O)(=O)c2ccc(C#Cc3ccncc3)cc2O[C@@H]1CN(C)S(=O)(=O)c1ccc(F)cc1,active
5,C[C@@H]1CN([C@@H](C)CO)C(=O)c2ccccc2-c2ccccc2CO[C@@H]1CN(C)Cc1ccc(C(F)(F)F)cc1,inactive
6,CC(=O)CNC(=O)Cc1ccccc1,inactive
7,O=S(=O)(NCc1ccco1)N1CCOCC1,inactive
8,CN(C)CCCNC(=O)C[C@@H]1CC[C@@H](NS(=O)(=O)c2ccccc2)[C@@H](CO)O1,inactive
9,COc1ccc(S(=O)(=O)N(C)C[C@@H]2Oc3ccc(NC(=O)NC(C)C)cc3C(=O)N([C@H](C)CO)C[C@@H]2C)cc1,inactive
10,C[C@@H]1CCCCO[C@@H](CN(C)CC2CC2)[C@H](C)CN([C@@H](C)CO)C(=O)c2cc(NC(=O)Nc3ccc(C(F)(F)F)cc3)ccc2O1,inactive
11,CCC[C@@H](O)C#Cc1cnc2c(c1)C(=O)N([C@H](C)CO)C[C@H](C)[C@H](CN(C)C(=O)Nc1ccccc1)O2,inactive
12,CC(=O)OCC(CCn1cnc2cnc(N)nc21)COC(C)=O,inactive
13,C[C@H](CO)N1C[C@H](C)[C@H](CN(C)S(=O)(=O)c2cccs2)Oc2ccc(NS(C)(=O)=O)cc2CC1=O,inactive
14,C[C@@H]1CN([C@@H](C)CO)C(=O)c2cc(NC(=O)Nc3ccc(F)cc3)ccc2O[C@@H](C)CCCCO[C@H]1CN(C)C(=O)c1ccccc1,inactive
15,C[C@@H]1CCCCO[C@@H](CN(C)Cc2ccc3c(c2)OCO3)[C@@H](C)CN([C@@H](C)CO)C(=O)c2cc(NS(=O)(=O)c3ccccc3)ccc2O1,inactive
16,C#CCN([C@H](/C=C/C1CC1)[C@@H](O)Cc1ccccc1)[C@@H](Cc1ccc(-n2cc(C(=O)NO)nn2)cc1)C(=O)OC,inactive
17,O=C(O)c1ccc(O)c(C(=O)O)c1,inactive
18,C[C@@H]1CN([C@@H](C)CO)C(=O)c2cccc(NS(=O)(=O)c3ccc(Cl)cc3)c2O[C@H]1CN(C)S(=O)(=O)c1cn(C)cn1,inactive
19,C[C@@H]1CN([C@@H](C)CO)C(=O)c2cc(NC(=O)CCC(F)(F)F)ccc2O[C@@H]1CN(C)S(C)(=O)=O,inactive
